The binders below were run against cynomolgus LAG3 expressed on the cell surface (293T or CHO cells) (cynomolgus monkey) (assay: flow cytometry cell binding on CHO cells expressing cynomolgus LAG3; PE anti-human IgG detection; one site-specific binding with Hill slope fit).

Row | Bmax | Kd | Binder
1 | 5070 MFI | 1.2 nM | PD-1/LAG3 Bi-specific Construct A: aPD1 1353-G10 scFv_zwB × aLAG3 Fab_zwA (bispecific antibody, human IgG1, kappa) scFv: MEVQLVQSGAEVKKPGASVKVSCKASGYRFPHYGISWVRQAPGQGLEWMGWISAYNGNTNYAQKLQGRVTMTTDTSTNTAYMELRSLRSDDTAVYYCARDVDYGTGSGYWGQGTLVTVSSGGGGSGGGGSGGGGSSYELTQPPSVSVSPGQTARITCSGDALPKQYAYWYQQKPGQAPVMVIYKDTERPSGIPERFSGSSSGTKVTLTISGVQAEDEADYYCQSADNSITYRVFGGGTKVTVLAAGSDQ[no letters for human IgG1 Fc with changes] heavy: MQVQLVESGGGVVQPGRSLRLSCAASGFTFSSYGMHWVRQAPGKGLEWVAVIWYDGSYKYYADSVKGRFTISRDNSKNTLYLQMNSLRAEDTAVYYCAREEAPENWDYALDVWGQGTTVTVSSASTKGPSVFPLAPSSKSTSGGTAALGCLVKDYFPEPVTVSWNSGALTSGVHTFPAVLQSSGLYSLSSVVTVPSSSLGTQTYICNVNHKPSNTKVDKKVEPKSCDKTHTCPPCPAPELLGGPSVFLFPPKPKDTLMISRTPEVTCVVVDVSHEDPEVKFNWYVDGVEVHNAKTKPREEQYNSTYRVVSVLTVLHQDWLNGKEYKCKVSNKALPAPIEKTISKAKGQPREPQVYVYPPSREEMTKNQVSLTCLVKGFYPSDIAVEWESNGQPENNYKTTPPVLDSDGSFALVSKLTVDKSRWQQGNVFSCSVMHEALHNHYTQKSLSLSPGK light: [no letters for about 100 residues][no letters for about 120 residues]
2 | 5280 MFI | 1.9 nM | PD-1/LAG3 Bi-specific Construct B: aPD1 1353-G10 scFvFc zwB R28T/P30D/H31S V262E; aLAG3 1449-G09.2 Fab zwA V262E (bispecific antibody, human IgG1, kappa) scFv: EVQLVQSGAEVKKPGASVKVSCKASGYTFDSYGISWVRQAPGQGLEWMGWISAYNGNTNYAQKLQGRVTMTTDTSTNTAYMELRSLRSDDTAVYYCARDVDYGTGSGYWGQGTLVTVSSGGGGSGGGGSGGGGSSYELTQPPSVSVSPGQTARITCSGDALPKQYAYWYQQKPGQAPVMVIYKDTERPSGIPERFSGSSSGTKVTLTISGVQAEDEADYYCQSADNSITYRVFGGGTKVTVLAAGSDQEPKSSDKTHTCPPCPAPELLGGPSVFLFPPKPKDTLMISRTPEVTCEVVDVSHEDPEVKFNWYVDGVEVHNAKTKPREEQYNSTYRVVSVLTVLHQDWLNGKEYKCKVSNKALPAPIEKTISKAKGQPREPQVYVLPPSREEMTKNQVSLLCLVKGFYPSDIAVEWESNGQPENNYLTWPPVLDSDGSFFLYSKLTVDKSRWQQGNVFSCSVMHEALHNHYTQKSLSLSPGK heavy: QVQLVESGGGVVQPGRSLRLSCAASGFTFSSYGMHWVRQAPGKGLEWVAVIWYDGSYKYYADSVKGRFTISRDNSKNTLYLQMNSLRAEDTAVYYCAREEAPENWDYALDVWGQGTTVTVSSASTKGPSVFPLAPSSKSTSGGTAALGCLVKDYFPEPVTVSWNSGALTSGVHTFPAVLQSSGLYSLSSVVTVPSSSLGTQTYICNVNHKPSNTKVDKKVEPKSCDKTHTCPPCPAPELLGGPSVFLFPPKPKDTLMISRTPEVTCEVVDVSHEDPEVKFNWYVDGVEVHNAKTKPREEQYNSTYRVVSVLTVLHQDWLNGKEYKCKVSNKALPAPIEKTISKAKGQPREPQVYVYPPSREEMTKNQVSLTCLVKGFYPSDIAVEWESNGQPENNYKTTPPVLDSDGSFALVSKLTVDKSRWQQGNVFSCSVMHEALHNHYTQKSLSLSPGK light: [no letters for about 100 residues][no letters for about 120 residues]
3 | 4880 MFI | 1.9 nM | PD-1/LAG3 Bi-specific Construct C: aPD1 1353-G10 Vk1-39LC scFvFc zwB V262E; aLAG3 1449-G09.2 Fab zwA V262E (bispecific antibody, human IgG1, kappa) scFv: EVQLVQSGAEVKKPGASVKVSCKASGYRFPHYGISWVRQAPGQGLEWMGWISAYNGNTNYAQKLQGRVTMTTDTSTNTAYMELRSLRSDDTAVYYCARDVDYGTGSGYWGQGTLVTVSSGGGGSGGGGSGGGGSDIQLTQSPSSLSASVGDRVTITCSGDALPKQYAYWYQQKPGKAPKLLIYKDTERPSGVPSRFSGSSSGTKVTLTISSLQPEDFATYYCQSADNSITYRVFGGGTKVEIKAAGSDQEPKSSDKTHTCPPCPAPELLGGPSVFLFPPKPKDTLMISRTPEVTCEVVDVSHEDPEVKFNWYVDGVEVHNAKTKPREEQYNSTYRVVSVLTVLHQDWLNGKEYKCKVSNKALPAPIEKTISKAKGQPREPQVYVLPPSREEMTKNQVSLLCLVKGFYPSDIAVEWESNGQPENNYLTWPPVLDSDGSFFLYSKLTVDKSRWQQGNVFSCSVMHEALHNHYTQKSLSLSPGK heavy: QVQLVESGGGVVQPGRSLRLSCAASGFTFSSYGMHWVRQAPGKGLEWVAVIWYDGSYKYYADSVKGRFTISRDNSKNTLYLQMNSLRAEDTAVYYCAREEAPENWDYALDVWGQGTTVTVSSASTKGPSVFPLAPSSKSTSGGTAALGCLVKDYFPEPVTVSWNSGALTSGVHTFPAVLQSSGLYSLSSVVTVPSSSLGTQTYICNVNHKPSNTKVDKKVEPKSCDKTHTCPPCPAPELLGGPSVFLFPPKPKDTLMISRTPEVTCEVVDVSHEDPEVKFNWYVDGVEVHNAKTKPREEQYNSTYRVVSVLTVLHQDWLNGKEYKCKVSNKALPAPIEKTISKAKGQPREPQVYVYPPSREEMTKNQVSLTCLVKGFYPSDIAVEWESNGQPENNYKTTPPVLDSDGSFALVSKLTVDKSRWQQGNVFSCSVMHEALHNHYTQKSLSLSPGK light: [no letters for about 100 residues][no letters for about 120 residues]
